{"source": "ChEMBL document CHEMBL4888484", "about": "“Replenishing the malaria drug discovery pipeline: Screening and hit evaluation of the MMV Hit Generation Library 1 (HGL1) against asexual blood stage Plasmodium falciparum ,using a nano luciferase reporter read-out” (2022)", "note": "Hit rate of the full screen: of about 150,000 compounds, about 540 (0.36%) showed an effect of 50% or more. The list shows a part of the results.", "data": [{"system": "Plasmodium falciparum", "experiment": "Primary screen in NF54 nanoGlo assay, in single point, at 2uM, 72h; a lower Z score goes with more inhibition", "assay_type": "functional, Erythrocyte", "details": "timepoint 72 hour", "units": {"% Inhibition": "%"}, "values": [{"smiles": "O=C(NCCN1CCOCC1)c1cc2n(n1)CCN(Cc1ccccc1)C2=O", "% Inhibition": -14, "Z score": 1.92}, {"smiles": "COc1ccc(NC(=O)[C@H]2CC[C@H](Cn3cnc4ccccc4c3=O)CC2)cc1Cl", "% Inhibition": 2, "Z score": -0.32}, {"smiles": "O=C1N(C2CCCCC2)CCC[C@@]12CCN(c1ncnc3[nH]cnc13)C2", "% Inhibition": -4, "Z score": 0.53}, {"smiles": "Cc1noc(C)c1C(=O)NCC1CCN(Cc2nnc(-c3ccccc3)o2)CC1", "% Inhibition": 12, "Z score": -1.49}, {"smiles": "CCn1ccnc(Oc2ccc(C)nc2)c1=O", "% Inhibition": -14, "Z score": 1.59}, {"smiles": "COc1ccc(CN2CCc3ccccc3C2)cc1OC[C@@H](O)CN1CCCCC1", "% Inhibition": -3, "Z score": 0.38}, {"smiles": "CCn1ccc(CN(C)Cc2nncn2CC)n1", "% Inhibition": -10, "Z score": 1.02}, {"smiles": "COc1ccc2[nH]c3c(c2c1)CCN1C(=O)N([C@@H](C)C(=O)NC2CCCCC2C)C(=O)[C@]31C", "note": "(some centres undefined)", "% Inhibition": -1, "Z score": 0.17}, {"smiles": "O=c1ccc(-c2ccccc2)nn1C1CCCC1", "% Inhibition": -12, "Z score": 1.59}, {"smiles": "CCCNS(=O)(=O)c1ccc(/C=C\\c2onc(C)c2NC(C)=O)cc1", "% Inhibition": -20, "Z score": 2.94}, {"smiles": "O=S(=O)(c1ccc2c(c1)CCO2)N1CC[C@H](c2noc(-c3ccco3)n2)C1", "% Inhibition": -7, "Z score": 1.19}, {"smiles": "Cc1ccnc(OCC(=O)N2CCN(c3ccc(N(C)C)nn3)CC2)n1", "% Inhibition": -13, "Z score": 1.14}, {"smiles": "O=C1C[C@H](NS(=O)(=O)c2cccs2)CN1c1ccc2c(c1)OCCO2", "% Inhibition": -2, "Z score": 0.31}, {"smiles": "CCN(CCc1nccs1)C(=O)Nc1cccnc1OCC(F)F", "% Inhibition": -6, "Z score": 0.81}, {"smiles": "CC[C@]1(C(=O)OC)N[C@@H](c2cccc(OC(F)F)c2)[C@H]2C(=O)N(C)C(=O)[C@H]21", "% Inhibition": -3, "Z score": 0.44}, {"smiles": "O=C(Nc1ccc2c(c1)OCCCO2)N1CC2CC=CCC2C1", "note": "(centres undefined)", "% Inhibition": 0, "Z score": -0.01}, {"smiles": "CCN(C(=O)c1cc(C)n(-c2nccs2)c1C)c1nc(C)cs1", "% Inhibition": -2, "Z score": 0.19}, {"smiles": "O=C(NCCCn1ccnc1)N1CCOC2CCCC21", "note": "(centres undefined)", "% Inhibition": -7, "Z score": 1.06}, {"smiles": "COc1c(-c2ccccc2)sc2nc(C)cc(C)[n+]12", "% Inhibition": 1, "Z score": -0.08}, {"smiles": "NC(=O)c1ccc(-c2noc(C3CCC(F)(F)CC3)n2)cn1", "% Inhibition": -15, "Z score": 1.62}, {"smiles": "O=C1C[C@H](COCc2ccccc2)c2c[nH]nc2N1", "% Inhibition": 11, "Z score": -1.89}, {"smiles": "CCn1nc(CC(C)C)cc1-c1nc([C@H]2CCOC2)no1", "% Inhibition": -10, "Z score": 1.58}, {"smiles": "CCC(C)C(CO)NC(=O)c1[nH]nc2c1CCc1cc(OC)ccc1-2", "note": "(centres undefined)", "% Inhibition": -15, "Z score": 1.91}, {"smiles": "O=C(c1ccc(-n2ccnc2-c2cccnc2)o1)N1CCOCC1", "% Inhibition": -5, "Z score": 0.62}, {"smiles": "Cc1nn(-c2ncnc3[nH]cnc23)c2c1[C@@]1(CC(=O)N2)C(=O)N(Cc2cccc(OC(F)(F)F)c2)c2ccccc21", "% Inhibition": -9, "Z score": 1.43}, {"smiles": "COCC(=O)N1CCCC(C(=O)N[C@@H]2CCCC[C@H]2NC(=O)c2ccccc2)C1", "note": "(some centres undefined)", "% Inhibition": -1, "Z score": 0.16}, {"smiles": "CN(CC(=O)NC1(c2nnc(N)s2)CCCCC1)Cc1ccncc1", "% Inhibition": -2, "Z score": 0.32}, {"smiles": "CCOC(=O)c1cc2n(n1)C[C@@](C)(C(=O)NCCC(C)C)N(c1ccc(C)c(C)c1)C2=O", "% Inhibition": -6, "Z score": 0.75}, {"smiles": "Cc1ccc(O)c(C(=O)N2CC[C@H](N3CCN(C)CC3)[C@H](CCCO)C2)c1", "% Inhibition": -20, "Z score": 2.03}, {"smiles": "CCN(CC)[C@H](CNc1nnc(C)c(C)c1C#N)CC(C)C", "% Inhibition": 1, "Z score": -0.12}, {"smiles": "Cc1ccccc1OCC(=O)N(CC(F)(F)F)C1CCOCC1", "% Inhibition": -11, "Z score": 1.26}, {"smiles": "Cc1[nH]c2ccccc2c1C1CCN(C(=O)CCCn2cncn2)CC1", "% Inhibition": -4, "Z score": 0.55}, {"smiles": "CCc1csc(CNC(=O)c2ccc(N(C)C[C@H]3CCCCO3)nc2)n1", "% Inhibition": -3, "Z score": 0.4}, {"smiles": "NS(=O)(=O)c1ccc(CCNC(=O)NC2CC2)cc1", "% Inhibition": -6, "Z score": 1.26}, {"smiles": "O=C(CNCC1CC1)N1CCc2ccccc2C1", "% Inhibition": -31, "Z score": 3.59}, {"smiles": "O=C(c1ccc(-c2nc(C3CC3)n[nH]2)cc1)N1CCOC[C@@H]1CCO", "% Inhibition": -1, "Z score": 0.24}, {"smiles": "C[C@H](CCC(=O)N(C)Cc1ccccc1)[C@H]1CC[C@H]2[C@@H]3CC[C@@H]4C[C@H](O)CC[C@]4(C)[C@H]3C[C@H](O)[C@]12C", "% Inhibition": -4, "Z score": 0.57}, {"smiles": "Cc1cscc1-c1noc([C@@H]2COCCO2)n1", "% Inhibition": -1, "Z score": 0.15}, {"smiles": "OC[C@H]1CN(Cc2ccc(F)cn2)CCN1Cc1ccc(F)cn1", "% Inhibition": -9, "Z score": 1.45}, {"smiles": "COC(=O)C1(N(C)C(=O)[C@H](C)S(=O)(=O)C(C)C)CCCC1", "% Inhibition": 3, "Z score": -0.32}, {"smiles": "Fc1cccc(F)c1-c1nc(CN(Cc2ccccn2)C2CC2)co1", "% Inhibition": -7, "Z score": 0.76}, {"smiles": "COc1cc2c(cc1CNC(=O)c1ccco1)OCCCO2", "% Inhibition": -16, "Z score": 2.2}]}]}
